# This is one part of the list.
# How the values were obtained:
# Test in all cases: glycan array binding signal (z-score within array); higher = stronger binding
# Conditions in all cases: glycan notation: IUPAC condensed, linker removed
# [1] = target: Gal(b1-4)GlcNAc(b1-3)Gal(b1-4)GlcNAc(b1-3)Gal(b1-4)GlcNAc(b1-3)Gal(b1-4)GlcNAc(b1-2)Man(a1-3)[Gal(b1-4)GlcNAc(b1-3)Gal(b1-4)GlcNAc(b1-3)Gal(b1-4)GlcNAc(b1-3)Gal(b1-4)GlcNAc(b1-2)Man(a1-6)]Man(b1-4)GlcNAc(b1-4)[Fuc(a1-6)]GlcNAc
# Outline: (§1)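 Glycan array binding is given as a within-array Z-score, which can be read as non-binding when negative. The arrays, 3228 of them, came from the Consortium for Functional Glycomics database and were retained only where the protein sequence was available. Z-scores were averaged across arrays of the same protein sequence at different concentrations or buffers and across linkers.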
# [2] = target: Gal(b1-4)GlcNAc(b1-3)Gal(b1-4)GlcNAc(b1-3)Gal(b1-4)GlcNAc(b1-3)Gal(b1-4)GlcNAc(b1-2)[Gal(b1-4)GlcNAc(b1-3)Gal(b1-4)GlcNAc(b1-3)Gal(b1-4)GlcNAc(b1-3)Gal(b1-4)GlcNAc(b1-6)]Man(a1-6)[Gal(b1-4)GlcNAc(b1-3)Gal(b1-4)GlcNAc(b1-3)Gal(b1-4)GlcNAc(b1-3)Gal(b1-4)GlcNAc(b1-2)Man(a1-3)]Man(b1-4)GlcNAc(b1-4)[Fuc(a1-6)]GlcNAc
# Outline: as §1
# [3] = target: Gal(b1-4)GlcNAc(b1-3)Gal(b1-4)GlcNAc(b1-3)Gal(b1-4)GlcNAc(b1-3)Gal(b1-4)GlcNAc(b1-3)Gal(b1-4)GlcNAc(b1-2)Man(a1-3)[Gal(b1-4)GlcNAc(b1-3)Gal(b1-4)GlcNAc(b1-3)Gal(b1-4)GlcNAc(b1-3)Gal(b1-4)GlcNAc(b1-3)Gal(b1-4)GlcNAc(b1-2)Man(a1-6)]Man(b1-4)GlcNAc(b1-4)GlcNAc
# Outline: as §1
# [4] = target: Gal(b1-4)GlcNAc(b1-3)Gal(b1-4)GlcNAc(b1-3)Gal(b1-4)GlcNAc(b1-3)Gal(b1-4)GlcNAc(b1-3)Gal(b1-4)GlcNAc(b1-2)Man(a1-3)[Gal(b1-4)GlcNAc(b1-3)Gal(b1-4)GlcNAc(b1-3)Gal(b1-4)GlcNAc(b1-3)Gal(b1-4)GlcNAc(b1-3)Gal(b1-4)GlcNAc(b1-2)Man(a1-6)]Man(b1-4)GlcNAc(b1-4)[Fuc(a1-6)]GlcNAc
# Outline: as §1
# [5] = target: Gal(b1-4)GlcNAc(b1-3)Gal(b1-4)GlcNAc(b1-3)Gal(b1-4)GlcNAc(b1-3)Gal(b1-4)GlcNAc(b1-3)Gal(b1-4)GlcNAc(b1-2)[Gal(b1-4)GlcNAc(b1-3)Gal(b1-4)GlcNAc(b1-3)Gal(b1-4)GlcNAc(b1-3)Gal(b1-4)GlcNAc(b1-3)Gal(b1-4)GlcNAc(b1-6)]Man(a1-6)[Gal(b1-4)GlcNAc(b1-3)Gal(b1-4)GlcNAc(b1-3)Gal(b1-4)GlcNAc(b1-3)Gal(b1-4)GlcNAc(b1-3)Gal(b1-4)GlcNAc(b1-2)Man(a1-3)]Man(b1-4)GlcNAc(b1-4)[Fuc(a1-6)]GlcNAc
# Outline: as §1
# [6] = target: Gal(b1-4)GlcNAc(b1-3)Gal(b1-4)GlcNAc(b1-3)Gal(b1-4)GlcNAc(b1-3)Gal(b1-4)GlcNAc(b1-3)Gal(b1-4)GlcNAc(b1-3)Gal(b1-4)GlcNAc(b1-2)Man(a1-3)[Gal(b1-4)GlcNAc(b1-3)Gal(b1-4)GlcNAc(b1-3)Gal(b1-4)GlcNAc(b1-3)Gal(b1-4)GlcNAc(b1-3)Gal(b1-4)GlcNAc(b1-3)Gal(b1-4)GlcNAc(b1-2)Man(a1-6)]Man(b1-4)GlcNAc(b1-4)GlcNAc
# Outline: as §1
# [7] = target: Gal(b1-4)GlcNAc(b1-3)Gal(b1-4)GlcNAc(b1-3)GalNAc
# Outline: as §1
# [8] = target: Gal(b1-4)GlcNAc(b1-3)Gal(b1-4)GlcNAc(b1-3)[Gal(b1-4)GlcNAc(b1-3)Gal(b1-4)GlcNAc(b1-6)]GalNAc
# Outline: as §1
# [9] = target: Gal(b1-4)GlcNAc(b1-3)Gal(b1-4)GlcNAc(b1-6)[Gal(b1-3)]GalNAc
# Outline: as §1
# [10] = target: Gal(b1-4)GlcNAc(b1-3)Gal(b1-4)[Fuc(a1-3)]GlcNAc(b1-3)Gal(b1-4)[Fuc(a1-3)]GlcNAc
# Outline: as §1
# [11] = target: Gal(b1-4)GlcNAc(b1-3)GalNAc
# Outline: as §1
# [12] = target: Gal(b1-4)GlcNAc(b1-3)[Fuc(a1-3)GlcNAc(b1-6)]Gal(b1-4)Glc
# Outline: as §1
# [13] = target: Gal(b1-4)GlcNAc(b1-3)[Gal(b1-4)GlcNAc(b1-6)]Gal(b1-4)GlcNAc
# Outline: as §1
# [14] = target: Gal(b1-4)GlcNAc(b1-3)[GlcNAc(b1-6)]Gal(b1-4)GlcNAc
# Outline: as §1
# [15] = target: Gal(b1-4)GlcNAc(b1-6)Gal(b1-4)GlcNAc
# Outline: as §1
# [16] = target: Gal(b1-4)GlcNAc(b1-6)GalNAc
# Outline: as §1
# [17] = target: Gal(b1-4)GlcNAc(b1-6)[Gal(b1-3)]GalNAc
# Outline: as §1
# [18] = target: Gal(b1-4)GlcNAc(b1-6)[Gal(b1-4)GlcNAc(b1-3)]GalNAc
# Outline: as §1
# Gal(b1-4)GlcNAc6P = target: Gal(b1-4)GlcNAc6P
# Outline: as §1
# Gal(b1-6)Gal = target: Gal(b1-6)Gal
# Outline: as §1
# Gal3S(b1-3)GalNAc = target: Gal3S(b1-3)GalNAc
# Outline: as §1
# Gal3S(b1-3)GlcNAc = target: Gal3S(b1-3)GlcNAc
# Outline: as §1
# [19] = target: Gal3S(b1-3)[Fuc(a1-4)]GlcNAc
# Outline: as §1
# Gal3S(b1-4)Glc = target: Gal3S(b1-4)Glc
# Outline: as §1
# Gal3S(b1-4)Glc6S = target: Gal3S(b1-4)Glc6S
# Outline: as §1
# Gal3S(b1-4)GlcNAc = target: Gal3S(b1-4)GlcNAc
# Outline: as §1
# [20] = target: Gal3S(b1-4)[Fuc(a1-3)]Glc6S
# Outline: as §1
# [21] = target: Gal3S(b1-4)[Fuc(a1-3)]GlcNAc
# Outline: as §1
# [22] = target: Gal3S(b1-4)[Fuc(a1-3)]GlcNAc6S
# Outline: as §1
# Gal3S4S(b1-4)GlcNAc = target: Gal3S4S(b1-4)GlcNAc
# Outline: as §1
# Gal3S6S(b1-4)GlcNAc = target: Gal3S6S(b1-4)GlcNAc
# Outline: as §1
# Gal3S6S(b1-4)GlcNAc6S = target: Gal3S6S(b1-4)GlcNAc6S
# Outline: as §1
# Gal4S(b1-4)GlcNAc = target: Gal4S(b1-4)GlcNAc
# Outline: as §1
# Gal4S6S(b1-4)GlcNAc = target: Gal4S6S(b1-4)GlcNAc
# Outline: as §1
# Gal6P(b1-4)GlcNAc = target: Gal6P(b1-4)GlcNAc
# Outline: as §1
# Gal6S(b1-3)GlcNAc = target: Gal6S(b1-3)GlcNAc
# Outline: as §1
# Gal6S(b1-3)GlcNAc6S = target: Gal6S(b1-3)GlcNAc6S
# Outline: as §1
# Gal6S(b1-4)Glc = target: Gal6S(b1-4)Glc
# Outline: as §1
binder,measurement,setting,value
PX9961H-bth-557-24-557 (Bacteroides thetaiotaomicron) (protein) EETRTEVEKKNYMNNAEEAKDVLLGVYRTNTLDAMYGYYLSILFNLGTDISQVEGSGNENFRIIPTNSFPTTQSEVQQTWAALYTGIYRANDFLERISNKIGSYTTTDKKLATLYIAEARALRGMFYFELVRRFGNVVLMTSTQMSNQNPATYVQSAPEKVYEYIEDDLLYACDILPYATDDQYRESNDYRFSKGAALGLLTKVYATWAGYPVKDESKWEAAAKTARILVESGKHGLLKDYEQLWKNTCNGTWDPTESLIEISFYSPTVSGNSDPVGRIGKWNGVKTTAIAGVRGSCAANVKVVHTFVLDWREDVSDIRRDLSIANYQYTDTKKSLWVAGASDTDESAAEKDADPTKAQKNKQNYTPAKWDIQKYVTTNSFINNDKSNVNWYFLRYADVLLLYAEALNEWKHGPDAEAYNAINAVRRRGYGNPSNTSACDLPQGLDETSFREAVRKERSYELSFEGHRRQDLIRWGIYYKTVQATAKELGYWWEGTGSPNYSVATYTEEGKHELFPIPQRDMDLCIQFNQNPKW,glycan array binding signal (z-score),[1],1.18
same,glycan array binding signal (z-score),[2],0.661
same,glycan array binding signal (z-score),[3],5.22
same,glycan array binding signal (z-score),[4],0.542
same,glycan array binding signal (z-score),[5],4.46
same,glycan array binding signal (z-score),[6],2.62
same,glycan array binding signal (z-score),[7],2.16
same,glycan array binding signal (z-score),[8],-0.116
same,glycan array binding signal (z-score),[9],2.67
same,glycan array binding signal (z-score),[10],-0.312
same,glycan array binding signal (z-score),[11],-0.585
same,glycan array binding signal (z-score),[12],-0.407
same,glycan array binding signal (z-score),[13],0.044
same,glycan array binding signal (z-score),[14],-0.479
same,glycan array binding signal (z-score),[15],0.053
same,glycan array binding signal (z-score),[16],0.568
same,glycan array binding signal (z-score),[17],-0.337
same,glycan array binding signal (z-score),[18],-0.048
same,glycan array binding signal (z-score),Gal(b1-4)GlcNAc6P,-0.303
same,glycan array binding signal (z-score),Gal(b1-6)Gal,-0.383
same,glycan array binding signal (z-score),Gal3S(b1-3)GalNAc,-0.407
same,glycan array binding signal (z-score),Gal3S(b1-3)GlcNAc,-0.32
same,glycan array binding signal (z-score),[19],-0.395
same,glycan array binding signal (z-score),Gal3S(b1-4)Glc,-0.446
same,glycan array binding signal (z-score),Gal3S(b1-4)Glc6S,-0.305
same,glycan array binding signal (z-score),Gal3S(b1-4)GlcNAc,-0.046
same,glycan array binding signal (z-score),[20],-0.287
same,glycan array binding signal (z-score),[21],0.328
same,glycan array binding signal (z-score),[22],-0.135
same,glycan array binding signal (z-score),Gal3S4S(b1-4)GlcNAc,-0.235
same,glycan array binding signal (z-score),Gal3S6S(b1-4)GlcNAc,-0.266
same,glycan array binding signal (z-score),Gal3S6S(b1-4)GlcNAc6S,-0.33
same,glycan array binding signal (z-score),Gal4S(b1-4)GlcNAc,-0.296
same,glycan array binding signal (z-score),Gal4S6S(b1-4)GlcNAc,-0.164
same,glycan array binding signal (z-score),Gal6P(b1-4)GlcNAc,-0.334
same,glycan array binding signal (z-score),Gal6S(b1-3)GlcNAc,0.284
same,glycan array binding signal (z-score),Gal6S(b1-3)GlcNAc6S,0.54
same,glycan array binding signal (z-score),Gal6S(b1-4)Glc,-0.037

# Source: the supplement of paper PMC8728848
